Results as given in PubChem BioAssay AID1345083 (National Center for Advancing Translational Sciences (NCATS), 2018).
Among all 94,000 compounds or so, about 6,200 (6.6%) were called active. The inconclusive results got no clear call from the source; some entries with a clear call stand among them for comparison. Calls follow the shape of the dose curve; as a rule, active = well fitted inhibition curve with a large enough effect; inconclusive = small, poorly fitted or top-dose-only effect; inactive = flat fitted curve, though single readings scatter. Potencies of inconclusive entries are doubtful fits and often do not repeat.

Assay: Cytotoxic Profiling in HEK 293 Cell Line of Diverse Libraries Using Quantitative High-Throughput Screening; also: nearly all actives have a fitted effect of over 60% in size
Details: HEK 293 viability, ATP luminescence (CellTiter-Glo), 48-72 h; series mostly up to 115 µM
Outline: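 Read-out: CellTiter-Glo ATP luminescence. Cells: HEK 293, 250 cells/well. Exposure: 48 or 72 hr, 37 degree Celsius.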
Potency is read from the fitted curve at half-maximal effect; tags tell the direction and shape of the fitted curve.

Structure (SMILES) | Potency
CN1C(=O)[C@@H]2C[C@@H](CN2C(=O)CCC(=O)O)Oc2ccccc21 | inactive
COc1ccc(NC(=O)c2cc3c(N4CCSCC4)nc(C)cn3n2)cc1OC | inactive
Cc1cccc2c1nc1n2[C@@H](CNC2CCN(C)CC2)COC1 | inactive
CN(C)C(=O)c1nc(-c2ccc(Cl)cc2Cl)c2ccccn12 | inconclusive: 50.1 µM [inhibitor, partial curve, poor fit]
COCCNC(=O)CNC(=O)c1cccc(-c2ccc(C(F)(F)F)cc2)c1 | inconclusive: 50.1 µM [inhibitor, partial curve, poor fit]
COCCn1c(=O)c(C(=O)NCc2ccc(F)cc2)nc2cccnc21 | inactive
COCC1CN(Cc2ccc(OC)c(OC)c2Cl)CC12CCNCC2 (configuration not stated) | inconclusive: 39.8 µM [inhibitor, partial curve, poor fit]
COc1ccc(CNC(=O)c2noc(-c3ccc(C)cc3)n2)cc1 | inactive
COc1ccc(C(=O)NCC2c3cc(OC)c(OC)cc3CCN2C(=O)NC(C)C)cc1 (configuration not stated) | inconclusive: 44.7 µM [inhibitor, partial curve, poor fit]
CCOC(=O)C1CCCN(C(=O)C2CCc3nnc(C4CC4)n32)C1 (configuration not stated) | inconclusive: 22.4 µM [inhibitor, full curve, poor fit]
CN(C)[S+](=O)([O-])c1ccc2c(c1)OCCN(Cc1ccc(F)cc1)C2 | inconclusive: 89.1 µM [inhibitor, partial curve]
O=C(c1cccs1)N1CCCn2cc(-c3ccc4c(c3)OCO4)nc21 | inconclusive: 44.7 µM [inhibitor, partial curve]
Cc1cccc2c1nc1n2[C@@H](CNS(=O)(=O)c2ccc(F)cc2)COC1 | inconclusive: 35.5 µM [inhibitor, partial curve, poor fit]
O=C(NCc1ccccc1)c1ccccc1OC1CN(Cc2cccc(C(F)(F)F)c2)C1 | active: 25.1 µM
CNC(=O)[C@@H]1CN(C(=O)CCn2nc(C)cc2C)C[C@H]1c1n[nH]c(C)n1 | inactive
Cn1cnc(C(=O)N2CC(c3nc(CCOCc4ccccc4)no3)C2)c1 | inactive
Fc1ccc(-c2cc(CC3(NCc4ccc5c(c4)OCO5)COC3)no2)cc1 | inconclusive: 100 µM [inhibitor, partial curve, poor fit]
Cc1cc(C)n(CCC(=O)N2CC(c3noc(COc4ccccc4)n3)C2)n1 | inactive
CCOc1ccccc1C(=O)NC1CCN(c2cc(-c3ccc(F)cc3)[nH]n2)C1 (configuration not stated) | inconclusive: 50.1 µM [inhibitor, partial curve, poor fit]
COc1cccc(-c2cc(-c3cn[nH]c3)c3cncn3c2)c1 | inconclusive: 141 µM [inhibitor, partial curve, poor fit]
O=C1NCc2ccccc2CC12CCCN(Cc1ccsc1)C2 (configuration not stated) | inactive
Cc1cn2nc(C(=O)NCCCc3ccccc3)cc2c(N2CCCC2)n1 | inconclusive: 89.1 µM [inhibitor, single point]
O=C(NC[C@H]1OC[C@@H](N(Cc2ccccn2)Cc2ccccn2)[C@@H]1O)C1CC1 | inactive

Structure (SMILES) | Potency
COc1ccc(CNC(=O)CC[C@]23CC[C@](C)(O)C[C@H]2C(C)(C)C[C@@H]3NCc2ccccn2)cc1 | inconclusive: 89.1 µM [inhibitor, single point]
COc1ccc(C(=O)N2C[C@@H](C(N)=O)[C@H](c3n[nH]c(C)n3)C2)c(OC)n1 | inactive
COc1ccc(-c2ccccc2)cc1N1C(=O)[C@@H]2C[C@H]1CN2C(=O)C(C)(C)C | inactive
COCCN1C[C@H]2COc3ccccc3[C@H]2N(C(=O)c2ccccc2OC)CCC1=O | inactive
CCC(=O)N1CCc2c(sc3ncnc(NCc4ccccc4)c23)C1 | inconclusive: 79.4 µM [inhibitor, single point]
CCN1C(=O)CCN(Cc2cccc(OC(F)(F)F)c2)CC12CCOCC2 | inconclusive: 50.1 µM [inhibitor, partial curve, poor fit]
CN1CCC(NC(=O)C2(C)CCc3cnc(N4CCOCC4)nc32)CC1 (configuration not stated) | inconclusive: 100 µM [inhibitor, partial curve]
COc1ccc(C(=O)N2CCCCCCNC(=O)[C@@H]3CCCC[C@@H]32)cc1F | inconclusive: 28.2 µM [inhibitor, full curve]
COc1ccc(-c2nc3c(c(=O)[nH]2)CCN(S(=O)(=O)c2cccs2)C3)cc1 | inconclusive: 50.1 µM [inhibitor, partial curve, poor fit]
COCc1nc(CCNC(=O)c2cc(C)[nH]n2)no1 | inactive
CN(CCc1ccccn1)C(=O)CCC[C@@H]1[C@H]2CCCN3CCC[C@@H](CN1Cc1cccnc1)[C@@H]23 | inactive
COCCNC(=O)c1cc(-c2cccc(C(F)(F)F)c2)c2nncn2n1 | inactive
COc1ccc(C(=O)NC2CC2)c(OC2CCN(Cc3cccc(SC)c3)CC2)c1 | inconclusive: 50.1 µM [inhibitor, partial curve, poor fit]
COc1ccc(CCC(=O)N2CCC[C@H]2c2nc(-c3ccccc3Cl)no2)cc1 | inconclusive: 56.2 µM [inhibitor, partial curve, poor fit]
Cc1ccc(NC(=O)N2CCCC(Cn3c(C4CC4)nc4cccnc43)C2)cc1F (configuration not stated) | inconclusive: 50.1 µM [inhibitor, partial curve, poor fit]
CN(CCNC(=O)c1cccnc1N1CC2CC(C1)[C@H]1CCCC(=O)N1C2)C1CCCCC1 (some centres not stated) | inconclusive: 79.4 µM [inhibitor, partial curve]
COc1cc(NC(=O)Cn2c(-c3ccccc3)nc(C)c(CCO)c2=O)cc(OC)c1 | inconclusive: 50.1 µM [inhibitor, partial curve, poor fit]
COc1ccc(CCNC(=O)C2(c3ccc(Cl)cc3)CCOCC2)cc1 | inconclusive: 50.1 µM [inhibitor, partial curve, poor fit]
COc1cccc(S(=O)(=O)N2C[C@@H](F)C[C@H]2C(=O)N2CCCCC2)c1 | inactive
CC(=O)NC1(C)CCCN(Cc2cccc(-c3ccccc3)c2)C1 (configuration not stated) | inconclusive: 100 µM [inhibitor, partial curve]
O=C(Cc1ccc(N(Cc2ccc(F)cc2)C(=O)c2ccco2)cc1)NCC1CC1 | inconclusive: 89.1 µM [inhibitor, single point]
N#Cc1cccc(CN2C[C@H](O)C[C@H]2c2nc(Cc3ccccc3)no2)c1 | inconclusive: 100 µM [inhibitor, partial curve, poor fit]
O=C(c1cccc(F)c1)N1CCC2(CC1)N=C(c1ccccc1)NO2 | inactive

Structure (SMILES) | Potency
CC(=O)N1CC2(Cc3ccccc31)CN(C(=O)Cc1ccccn1)C2 | inactive
CCc1ccccc1NC(=O)c1cc2c(s1)CN(C(C)C)C2 | inconclusive: 22.4 µM [inhibitor, partial curve, poor fit]
COc1ccc(C2Cn3nnc(C(=O)N4CCN(C(=O)c5cc(C)ccc5C)CC4)c3CO2)cc1 (configuration not stated) | inconclusive: 50.1 µM [inhibitor, partial curve]
Cc1cc(C)cc(-c2ccc(CN3CCCC(NC(=O)N(C)C)C3)cc2)c1 (configuration not stated) | active: 31.6 µM
COc1ccc(CN2CCCC23Cc2ccccc2CNC3=O)c(O)c1 (configuration not stated) | inactive
Cc1noc(C)c1-c1cc2c(cc(C)n2CCN(C)C)c(-c2ccccc2O)n1 | active: 44.7 µM
COc1cccc(S(=O)(=O)N2CCCC(Cc3noc(-c4cnccn4)n3)C2)c1 (configuration not stated) | inconclusive: 89.1 µM [inhibitor, single point]
COc1ccc(NC(=O)O[C@@H]2CC[C@]3(C)C(CC[C@H]4OC(=O)C[C@H]43)[C@]2(C)CO)cc1 (some centres not stated) | inconclusive: 126 µM [inhibitor, single point]
O=C(NCc1cccnc1)c1nc(-c2cccc(C(F)(F)F)c2)c2ccccn12 | inconclusive: 50.1 µM [inhibitor, partial curve, poor fit]
CCOc1ccc(CN2CCc3nc(N(C)C)[nH]c(=O)c3CC2)cc1OC | inactive
O=C(NCc1ccc(F)c(F)c1)c1ccc2nnc(-c3cc(C(F)(F)F)cc(C(F)(F)F)c3)n2c1 | inconclusive: 20 µM [inhibitor, full curve, poor fit]
Cc1cnc(C2CCOCC2)n1CC1CCN(S(=O)(=O)c2cccnc2)CC1 | inactive
COc1ccc2c(C)c(C(=O)N3CCOC(c4ccc(F)cc4)C3)oc2c1 (configuration not stated) | inconclusive: 56.2 µM [inhibitor, partial curve, poor fit]
CC[C@H]1CN(S(=O)(=O)c2ccccc2)CC[C@H]1CC(=O)O | inconclusive: 56.2 µM [inhibitor, single point]
Cc1ccc(C2Cn3nnc(C(=O)N4CCC(C(=O)NCc5cccs5)CC4)c3CO2)cc1 (configuration not stated) | inactive
O=C(Nc1ccc(F)cc1)N1CCOc2ccc(CN3CCc4ccccc4C3)cc2C1 | inconclusive: 79.4 µM [inhibitor, partial curve, poor fit]
Cc1noc2c(NCc3cnccn3)cc(-c3ccccc3)nc12 | inactive
CCCC1CCN(C(=O)c2coc(COc3ccc4ccc(OC)cc4c3)n2)C1 (configuration not stated) | inconclusive: 50.1 µM [inhibitor, partial curve, poor fit]
Cc1noc(C)c1-c1cc2cc(CO)oc2c(N2CCS(=O)(=O)CC2)n1 | inactive
CCN1c2cc(C(=O)Nc3ccc(Cl)c(C)c3)ccc2C(=O)N2CCCCCC21 (configuration not stated) | inconclusive: 31.6 µM [inhibitor, full curve, poor fit]
CC(C)OCCCNC(=O)c1cc(-c2ccccc2F)nc2c1cnn2C | inconclusive: 89.1 µM [inhibitor, partial curve, poor fit]
